Reference: paper PMC4336329 (PLoS ONE, 2015)
Among all 310,000 compounds or so, about 14,000 (4.5%) showed an effect of 50% or more. Effects have a minus sign here. Some of the results follow.

Target: human ether-à-go-go-related gene (hERG) potassium channel (human, UniProt Q12809)
Assay: primary screen, population patch clamp on CHO cells stably expressing hERG
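Further: peak tail current of the secondary pulse compared with the same well before compound.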

Sequence of human ether-à-go-go-related gene (hERG) potassium channel (Q12809 whole entry, looked up): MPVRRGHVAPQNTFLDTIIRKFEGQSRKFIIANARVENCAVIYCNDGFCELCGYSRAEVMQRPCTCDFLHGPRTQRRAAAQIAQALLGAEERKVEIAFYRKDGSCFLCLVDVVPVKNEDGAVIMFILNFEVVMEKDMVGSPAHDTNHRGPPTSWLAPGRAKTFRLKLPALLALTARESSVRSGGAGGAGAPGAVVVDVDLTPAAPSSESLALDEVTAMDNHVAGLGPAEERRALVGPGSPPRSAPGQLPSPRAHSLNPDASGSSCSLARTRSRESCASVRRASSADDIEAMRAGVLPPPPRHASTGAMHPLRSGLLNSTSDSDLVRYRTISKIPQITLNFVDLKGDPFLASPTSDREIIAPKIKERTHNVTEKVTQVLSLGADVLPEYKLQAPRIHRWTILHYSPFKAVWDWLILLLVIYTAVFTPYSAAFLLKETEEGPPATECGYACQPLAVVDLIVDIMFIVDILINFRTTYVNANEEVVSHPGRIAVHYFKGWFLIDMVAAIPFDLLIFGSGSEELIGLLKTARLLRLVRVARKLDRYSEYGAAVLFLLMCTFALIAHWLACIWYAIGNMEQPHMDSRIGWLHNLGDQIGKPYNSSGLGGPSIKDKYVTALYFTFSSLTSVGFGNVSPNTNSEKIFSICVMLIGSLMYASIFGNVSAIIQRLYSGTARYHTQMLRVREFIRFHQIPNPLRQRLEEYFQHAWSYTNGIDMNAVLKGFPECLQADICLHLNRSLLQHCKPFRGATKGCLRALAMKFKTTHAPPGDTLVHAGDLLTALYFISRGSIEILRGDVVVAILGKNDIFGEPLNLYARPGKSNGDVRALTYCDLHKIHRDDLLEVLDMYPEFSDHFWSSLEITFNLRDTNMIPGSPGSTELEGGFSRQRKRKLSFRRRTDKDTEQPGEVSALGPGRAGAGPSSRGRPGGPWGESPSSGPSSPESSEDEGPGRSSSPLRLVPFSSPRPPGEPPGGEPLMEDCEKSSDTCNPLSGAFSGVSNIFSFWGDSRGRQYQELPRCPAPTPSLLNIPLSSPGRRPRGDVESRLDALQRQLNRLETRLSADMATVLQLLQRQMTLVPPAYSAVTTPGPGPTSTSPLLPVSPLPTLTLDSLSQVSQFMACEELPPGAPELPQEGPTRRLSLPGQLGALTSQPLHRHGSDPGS

Structure (SMILES)	hERG current change (%, negative = inhibition) at 10uM [%]
COc1ccc(N2CCN(C(=O)[C@@H](NC(=O)c3ccccc3Cl)C(C)C)CC2)cc1	11
Cc1ccc(C(=O)CSc2nnc(-c3ccco3)n2C)cc1	-27.2
COc1ccc(CCC(C)N(C)Cc2ccccc2)cc1 (centres unmarked)	-34.8
CN1/C(=C\C(=O)C[n+]2cccc(Br)c2)C(C)(C)c2ccccc21.[Cl-]	0.184
CCSCCc1nnc(NC(=O)Nc2cccc(C(F)(F)F)c2)s1	15.2
Cc1noc(C)c1/C=N/Nc1ccccn1	13.2
CCCC(=O)Nc1ccc(S(=O)(=O)N2CCC(c3nc4ccccc4[nH]3)CC2)cc1	-47.9
S=C(NCCCCNC(=S)NCc1ccccc1)NCc1ccccc1	-9.12
CC(=O)Nc1ccc(S(=O)(=O)N(C)CC(=O)OCC(=O)N2CCCCCC2)cc1	15.1
Cc1ccc(S(=O)(=O)c2c(N)n(/N=C/c3ccco3)c3nc4ccccc4nc23)cc1	-2.58
O=Cc1c(Nc2ccccc2Cl)nc2ccccn2c1=O	9.83
C/C(CC(=O)Nc1ccc(F)cc1)=N\NC(=O)c1ccccn1	-9.09
COC(=O)C(C(=O)Nc1ccccc1C)C1CCCCCC1 (centres unmarked)	-5.58
C=CCNC(=S)N/N=C/c1ccc(OCc2ccccc2Cl)cc1	-6.71
CC1CCCCC12NC(=O)N(CC(=O)NCCc1ccc(S(N)(=O)=O)cc1)C2=O (centres unmarked)	-10.4
CCCCCNC(=O)c1cc(S(=O)(=O)N2CCCC2)ccc1F	-22.8
Cc1ccc(-n2c(-c3cnccn3)n[nH]c2=S)c(Br)c1	6.06
Cn1nnnc1SC1CC(=O)N(c2ccccc2)C1=O (centres unmarked)	2.48
CCOC(=O)c1cc(C(=O)OCC)c(=O)[nH]c1C	-5.37
Cc1ccc(N2CC(C(=O)Nc3ccc(S(=O)(=O)Nc4nccs4)cc3)CC2=O)cc1 (centres unmarked)	36.2
CC(C)Oc1ccc(CC2CC(=O)NC2=O)cc1 (centres unmarked)	9.46
CC[N+](C)(CC)CCCOC(=O)C(O)(c1ccccc1)C1CCCCC1.[I-] (centres unmarked)	13.4
COC(=O)c1ccccc1NC(=O)CN1C(=O)NC2(CCCCCCC2)C1=O	3.83

Structure (SMILES)	hERG current change (%, negative = inhibition) at 10uM [%]
CC[n+]1c(C)n(-c2ccccc2)c2ccc(C(=O)OC)cc21.[I-]	15.9
CN(C)C(=O)c1cn(N(C)c2ncc(C(F)(F)F)cc2Cl)c(=O)c2ccccc12	-3.76
Cc1ccc(C(=O)Nc2nc(N)n(-c3ccccc3)n2)cc1	-0.817
CCOc1cccc(C(=O)Nc2ccc3c(c2)OCCO3)c1	3.35
Cc1ccccc1-n1nc(-c2cccnc2)cc1C(=O)NN	5.78
CCC(C)C(=O)Nc1nnc(SCC(=O)Nc2ccccc2F)s1 (centres unmarked)	10.1
COc1ccc(CC2(CO)CCN(Cc3cccc(OC)c3OC)CC2)cc1	-60.5
O=C(CC(C(=O)O)c1ccc(Cl)cc1)c1ccc(Cl)c(Cl)c1 (centres unmarked)	13.7
Cc1ccc(S(=O)(=O)N2CCCCC2)cc1NC(=O)c1c(-c2ccccc2)noc1C	-8.93
O=S(=O)(Nc1cc(Cl)ccc1-n1cncn1)c1ccc(F)cc1	9.15
CCC1CCCCN1CCCNC(=O)c1ccc2nc(N3CCC(C)CC3)sc2c1 (centres unmarked)	-64.5
COCCCNC(=O)CC(NS(=O)(=O)c1ccc(F)cc1)c1ccc(OC)cc1 (centres unmarked)	-1.73
Cc1ccc(-c2nc3ccccn3c2NCc2ccc3c(c2)OCO3)cc1	-69.3
N#CC1=C(Nc2ccc(Br)cc2)CCC1	-13.7
CCN(CC)c1ccc(C(=O)OCC(=O)Nc2ccccc2-c2ccccc2)cc1	17.9
c1ccc(-c2nnc(SCc3nnc(-c4cccs4)o3)o2)cc1	-40.5
O=C1NC(=O)/C(=C\c2ccccc2Oc2ccc(F)c(F)c2)S1	18.6
Cc1ccc(Oc2cc(NC(=O)CCCn3nc(C)c([N+](=O)[O-])c3C)cc([N+](=O)[O-])c2)cc1	1.19
COc1ccc(NC(=O)CCN2CCN(S(=O)(=O)c3ccc(C(C)C)cc3)CC2)cc1	4.54
Brc1ccc(-c2nc3ncccn3c2Nc2ccc3c(c2)OCCO3)o1	-31.9
CCCCC(=O)N/C(N)=N/c1nc2ccccc2o1	8.93
Cc1nc(NCc2ccccc2)[nH]c(=O)c1CCC(C)C	15.5
COCc1cc(C)nc(SCc2ccc(Br)cc2)c1C#N	8.84

Structure (SMILES)	hERG current change (%, negative = inhibition) at 10uM [%]
CCN(CC)CC(=O)Nc1sc2c(c1C(=O)c1ccccc1C)CCC2	2.52
Cc1ccn2c(CNC(C)CCn3cccn3)c(C(=O)N3CCCCCC3)nc2c1 (centres unmarked)	-33.1
O=C(NCC1CCCO1)c1cc(NS(=O)(=O)c2cccs2)cc(NS(=O)(=O)c2cccs2)c1 (centres unmarked)	18
Cc1cc2ncc(Cl)nc2cc1C	14.2
COC(=O)c1c(C)oc2ccc(N(C(=O)Oc3ccccc3)S(=O)(=O)c3ccccc3)cc12	2.5
Cc1cc(NC(=O)c2cccc3c2C(=O)N(C2CCCCC2)C3)ccc1Br	13
CCCCn1c(N)c(-c2nc3ccccc3s2)c2c([N+](=O)[O-])nn(C)c(=O)c21	-5.65
CCN1CCN(C(c2cccs2)C(C)NS(=O)(=O)c2ccc(F)cc2)CC1 (centres unmarked)	-28.4
COC(=O)c1ccccc1NC(=O)C1CCCN(c2nnc(-n3cccc3)s2)C1 (centres unmarked)	-53
O=C(CN1C(=O)c2ccccc2S1(=O)=O)Nc1cccnc1	-2.98
C=CCc1cccc(/C=N/NC(=O)COc2ccc(-n3cnnn3)cc2)c1O	11.3
N#Cc1ccc(OCC(=O)N2CCCC2=O)cc1	-0.981
O=C(Nc1ccc(F)cc1)C(=O)c1c(O)[nH]c2ccc([N+](=O)[O-])cc12	-2.41
Cc1ccc(S(=O)(=O)N2CCC(NC(=O)c3cccc(F)c3)CC2)cc1	10.4
C=CCn1ncc(OC)c(Cl)c1=O	6.24
CCOC(=O)C1=CC[C@H]2c3c(c4ccccc4n3C)C(=O)C1N2C	11.6
CCOCc1c(C(=O)NC2=Nc3ccccc3NC(CC)=C2C(=O)OCC)oc2ccccc12	0.462
CC(C)COc1ccc(C(=O)NC(CC(C)C)C(=O)O)cc1 (centres unmarked)	15.4
CC(C)(C)c1ccc(S(=O)(=O)NC(Cc2ccccc2)C(=O)O)cc1 (centres unmarked)	2.7
Cc1nn(CC(=O)NC2CCS(=O)(=O)C2)c(C)c1S(=O)(=O)N(C)C (centres unmarked)	-2.97
O=C(c1ccc(Cl)cc1)C1CCN(C(=O)NC2CCCCC2)CC1	-6.29
CC(C)c1ccc(NC(=S)N2CCCC(c3ccc(F)cc3)=N2)cc1	9.45
Cc1cc([N+](=O)[O-])cc2c1NC(c1ccccn1)C1CC=CC21 (centres unmarked)	-10.5

Structure (SMILES)	hERG current change (%, negative = inhibition) at 10uM [%]
O=C(CN1c2cccc3cccc(c23)S1(=O)=O)NCc1ccc(Cl)cc1	-13.4
COc1ccccc1N1CCN(Cc2cc(=O)c(OCC(=O)Nc3ccccc3)co2)CC1	25.5
O=C(NC(C(=O)c1ccccc1)n1cnccc1=O)c1ccccc1 (centres unmarked)	1.42
CC(=O)N1CCc2c(sc(NC(=O)Cc3ccc(F)cc3)c2C(N)=O)C1	-3.85
COc1ccc(NC(=O)C(NC(=O)c2ccc(=O)[nH]c2)c2ccc(C)cc2)cc1 (centres unmarked)	6.99
CC(Sc1n[nH]c(-c2cccs2)n1)C(=O)Nc1ccccc1F (centres unmarked)	1.68
CCOc1ccc(C(=O)N2CCCC2)cc1	5.24
CN(CC(=O)Nc1cccc(F)c1)C(=O)c1cn(-c2ccccc2)nc1-c1ccccc1	-1.36
O=C(CCCSc1nc2ccccc2[nH]1)NCc1ccc(Cl)cc1	-62.3
O=C(O)CNc1ncccc1[N+](=O)[O-]	-86.1
COCCCNc1c2c(nc3nnnn13)CCCC2	2.52
COC(=O)c1ccccc1NC(=O)CSc1nncn1C	16.1
COc1ccc(NCC(=O)n2c(C)c(C)c3ccccc32)cc1OC	8.3
Cc1ccc(OCC(=O)NCCNC(=O)c2cccnc2)cc1C	17.7
O=C(Cn1c(=O)n(Cc2ccco2)c(=O)c2ccccc21)Nc1cccc(Cl)c1	5.12
CC(=O)c1c(C)[nH]c(C(=O)CSc2nc3ccccc3c(=O)n2CCCO)c1C	-8.1
CC(C)c1ccc(NC(=O)CNCC(c2ccccc2)N(C)C)cc1 (centres unmarked)	-27.6
C=CCNC(=S)NNC(=O)c1ccc(=O)n(Cc2ccc(Cl)cc2Cl)c1	12.3
CCCOC(=O)Nc1ccc([As](=O)(O)O)cc1NC(=O)OCCC	24.1
O=C1C(Cc2ccccc2)C(c2ccccc2)N1c1ccccc1 (centres unmarked)	-13.2
